# Assay results as given in patent US7834164B2 (priority 2006, dated 2010).
# Part of at least one peptide drawing is inferred or uncertain, most often the ends. Bridge positions count the residues as written; N and C are the ends. Peptide text beside a SMILES is read from it.
# Experiments:
# [1] = system: IFN-g production in human whole blood; type: cell-based; conditions: read-out: Average IC50 IFNg
# [2] = system: IL-2 production in human whole blood; type: cell-based; conditions: for IC50: read-out: Average IC50 IL-2
SMILES,IC50 [1],IC50 [2],potency in blocking the cytokine response relative to cyclosporin A [2]
"CC[C@H](C)[C@@H]1NC(=O)[C@H](CCCCN)NC(=O)[C@@H](NC(=O)[C@H](CCCCN)NC(=O)[C@@H](NC(=O)[C@H](CC(N)=O)NC(=O)[C@@H](NC(=O)[C@@H](NC(=O)[C@@H](NC(=O)[C@H](C)N)C(C)C)[C@@H](C)CC)[C@@H](C)CC)C(C)C)CSSC[C@@H]2NC(=O)[C@H](CCCCN)NC(=O)CNC(=O)[C@H](Cc3ccccc3)NC(=O)[C@H](CCCNC(=N)N)NC(=O)[C@H](CCSC)NC(=O)CNC(=O)[C@H](C)NC(=O)[C@H](CCCCN)NC(=O)[C@H](CCCCN)NC(=O)[C@@H]3CSSC[C@@H](C(=O)N[C@H](C(=O)N4CCC[C@H]4C(=O)N[C@@H](CCCCN)C(=O)O)[C@@H](C)O)NC(=O)[C@H](Cc4c[nH]cn4)NC(=O)[C@H](CSSC[C@H](NC(=O)[C@H](CCC(N)=O)NC(=O)[C@H](CCCNC(=N)N)NC(=O)[C@H](CO)NC1=O)C(=O)N[C@@H](CC(C)C)C(=O)N[C@@H](CCC(=O)O)C(=O)N1CCC[C@H]1C(=O)N3)NC(=O)[C@H](CCCCN)NC(=O)CNC(=O)[C@H](CC(N)=O)NC(=O)[C@H](CCSC)NC2=O [Ala-1] (H-AVIINVKCKISRQCLEPCKKAGMRFGKCMNGKCHCTPK-OH; disulfide 8-28, 14-33, 18-35)",0.119 nM,0.122 nM,
"CC[C@H](C)[C@H](NC(=O)[C@H](C)NC(=O)CN)C(=O)N[C@H](C(=O)N[C@@H](CC(N)=O)C(=O)N[C@H](C(=O)N[C@@H](CCCCN)C(=O)N[C@H]1CSSC[C@@H]2NC(=O)[C@H](CCCCN)NC(=O)CNC(=O)[C@H](Cc3ccccc3)NC(=O)[C@H](CCCNC(=N)N)NC(=O)[C@H](CCSC)NC(=O)CNC(=O)[C@H](C)NC(=O)[C@H](CCCCN)NC(=O)[C@H](CCCCN)NC(=O)[C@@H]3CSSC[C@@H](C(=O)N[C@H](C(=O)N4CCC[C@H]4C(=O)N[C@@H](CCCCN)C(=O)O)[C@@H](C)O)NC(=O)[C@H](Cc4c[nH]cn4)NC(=O)[C@H](CSSC[C@H](NC(=O)[C@H](CCC(N)=O)NC(=O)[C@H](CCCNC(=N)N)NC(=O)[C@H](CO)NC(=O)[C@H]([C@@H](C)CC)NC(=O)[C@H](CCCCN)NC1=O)C(=O)N[C@@H](CC(C)C)C(=O)N[C@@H](CCC(=O)O)C(=O)N1CCC[C@H]1C(=O)N3)NC(=O)[C@H](CCCCN)NC(=O)CNC(=O)[C@H](CC(N)=O)NC(=O)[C@H](CCSC)NC2=O)C(C)C)[C@@H](C)CC [Ala-2] (H-GAIINVKCKISRQCLEPCKKAGMRFGKCMNGKCHCTPK-OH; disulfide 8-28, 14-33, 18-35)",0.103 nM,0.0884 nM,
"CC[C@H](C)[C@H](NC(=O)[C@H](C)NC(=O)[C@@H](NC(=O)CN)C(C)C)C(=O)N[C@@H](CC(N)=O)C(=O)N[C@H](C(=O)N[C@@H](CCCCN)C(=O)N[C@H]1CSSC[C@@H]2NC(=O)[C@H](CCCCN)NC(=O)CNC(=O)[C@H](Cc3ccccc3)NC(=O)[C@H](CCCNC(=N)N)NC(=O)[C@H](CCSC)NC(=O)CNC(=O)[C@H](C)NC(=O)[C@H](CCCCN)NC(=O)[C@H](CCCCN)NC(=O)[C@@H]3CSSC[C@@H](C(=O)N[C@H](C(=O)N4CCC[C@H]4C(=O)N[C@@H](CCCCN)C(=O)O)[C@@H](C)O)NC(=O)[C@H](Cc4c[nH]cn4)NC(=O)[C@H](CSSC[C@H](NC(=O)[C@H](CCC(N)=O)NC(=O)[C@H](CCCNC(=N)N)NC(=O)[C@H](CO)NC(=O)[C@H]([C@@H](C)CC)NC(=O)[C@H](CCCCN)NC1=O)C(=O)N[C@@H](CC(C)C)C(=O)N[C@@H](CCC(=O)O)C(=O)N1CCC[C@H]1C(=O)N3)NC(=O)[C@H](CCCCN)NC(=O)CNC(=O)[C@H](CC(N)=O)NC(=O)[C@H](CCSC)NC2=O)C(C)C [Ala-3] (H-GVAINVKCKISRQCLEPCKKAGMRFGKCMNGKCHCTPK-OH; disulfide 8-28, 14-33, 18-35)",0.0992 nM,0.0883 nM,
"CC[C@H](C)[C@@H]1NC(=O)[C@H](CCCCN)NC(=O)[C@@H](NC(=O)[C@H](CCCCN)NC(=O)[C@@H](NC(=O)[C@H](CC(N)=O)NC(=O)[C@H](C)NC(=O)[C@@H](NC(=O)[C@@H](NC(=O)CN)C(C)C)[C@@H](C)CC)C(C)C)CSSC[C@@H]2NC(=O)[C@H](CCCCN)NC(=O)CNC(=O)[C@H](Cc3ccccc3)NC(=O)[C@H](CCCNC(=N)N)NC(=O)[C@H](CCSC)NC(=O)CNC(=O)[C@H](C)NC(=O)[C@H](CCCCN)NC(=O)[C@H](CCCCN)NC(=O)[C@@H]3CSSC[C@@H](C(=O)N[C@H](C(=O)N4CCC[C@H]4C(=O)N[C@@H](CCCCN)C(=O)O)[C@@H](C)O)NC(=O)[C@H](Cc4c[nH]cn4)NC(=O)[C@H](CSSC[C@H](NC(=O)[C@H](CCC(N)=O)NC(=O)[C@H](CCCNC(=N)N)NC(=O)[C@H](CO)NC1=O)C(=O)N[C@@H](CC(C)C)C(=O)N[C@@H](CCC(=O)O)C(=O)N1CCC[C@H]1C(=O)N3)NC(=O)[C@H](CCCCN)NC(=O)CNC(=O)[C@H](CC(N)=O)NC(=O)[C@H](CCSC)NC2=O [Ala-4] (H-GVIANVKCKISRQCLEPCKKAGMRFGKCMNGKCHCTPK-OH; disulfide 8-28, 14-33, 18-35)",0.0873 nM,0.111 nM,
"CC[C@H](C)[C@@H]1NC(=O)[C@H](CCCCN)NC(=O)[C@@H](NC(=O)[C@H](CCCCN)NC(=O)[C@@H](NC(=O)[C@H](C)NC(=O)[C@@H](NC(=O)[C@@H](NC(=O)[C@@H](NC(=O)CN)C(C)C)[C@@H](C)CC)[C@@H](C)CC)C(C)C)CSSC[C@@H]2NC(=O)[C@H](CCCCN)NC(=O)CNC(=O)[C@H](Cc3ccccc3)NC(=O)[C@H](CCCNC(=N)N)NC(=O)[C@H](CCSC)NC(=O)CNC(=O)[C@H](C)NC(=O)[C@H](CCCCN)NC(=O)[C@H](CCCCN)NC(=O)[C@@H]3CSSC[C@@H](C(=O)N[C@H](C(=O)N4CCC[C@H]4C(=O)N[C@@H](CCCCN)C(=O)O)[C@@H](C)O)NC(=O)[C@H](Cc4c[nH]cn4)NC(=O)[C@H](CSSC[C@H](NC(=O)[C@H](CCC(N)=O)NC(=O)[C@H](CCCNC(=N)N)NC(=O)[C@H](CO)NC1=O)C(=O)N[C@@H](CC(C)C)C(=O)N[C@@H](CCC(=O)O)C(=O)N1CCC[C@H]1C(=O)N3)NC(=O)[C@H](CCCCN)NC(=O)CNC(=O)[C@H](CC(N)=O)NC(=O)[C@H](CCSC)NC2=O [Ala-5] (H-GVIIAVKCKISRQCLEPCKKAGMRFGKCMNGKCHCTPK-OH; disulfide 8-28, 14-33, 18-35)",0.067 nM,0.0679 nM,
"CC[C@H](C)[C@@H]1NC(=O)[C@H](CCCCN)NC(=O)[C@@H](NC(=O)[C@H](C)NC(=O)[C@@H](NC(=O)[C@H](CC(N)=O)NC(=O)[C@@H](NC(=O)[C@@H](NC(=O)[C@@H](NC(=O)CN)C(C)C)[C@@H](C)CC)[C@@H](C)CC)C(C)C)CSSC[C@@H]2NC(=O)[C@H](CCCCN)NC(=O)CNC(=O)[C@H](Cc3ccccc3)NC(=O)[C@H](CCCNC(=N)N)NC(=O)[C@H](CCSC)NC(=O)CNC(=O)[C@H](C)NC(=O)[C@H](CCCCN)NC(=O)[C@H](CCCCN)NC(=O)[C@@H]3CSSC[C@@H](C(=O)N[C@H](C(=O)N4CCC[C@H]4C(=O)N[C@@H](CCCCN)C(=O)O)[C@@H](C)O)NC(=O)[C@H](Cc4c[nH]cn4)NC(=O)[C@H](CSSC[C@H](NC(=O)[C@H](CCC(N)=O)NC(=O)[C@H](CCCNC(=N)N)NC(=O)[C@H](CO)NC1=O)C(=O)N[C@@H](CC(C)C)C(=O)N[C@@H](CCC(=O)O)C(=O)N1CCC[C@H]1C(=O)N3)NC(=O)[C@H](CCCCN)NC(=O)CNC(=O)[C@H](CC(N)=O)NC(=O)[C@H](CCSC)NC2=O [Ala-7] (H-GVIINVACKISRQCLEPCKKAGMRFGKCMNGKCHCTPK-OH; disulfide 8-28, 14-33, 18-35)",0.0591 nM,,
"CC[C@H](C)[C@@H]1NC(=O)[C@H](CCCCN)NC(=O)[C@@H](NC(=O)[C@H](CCCCN)NC(=O)[C@@H](NC(=O)[C@H](CC(N)=O)NC(=O)[C@@H](NC(=O)[C@@H](NC(=O)[C@@H](NC(=O)CN)C(C)C)[C@@H](C)CC)[C@@H](C)CC)C(C)C)CSSC[C@@H]2NC(=O)[C@H](CCCCN)NC(=O)CNC(=O)[C@H](Cc3ccccc3)NC(=O)[C@H](CCCNC(=N)N)NC(=O)[C@H](CCSC)NC(=O)CNC(=O)[C@H](C)NC(=O)[C@H](CCCCN)NC(=O)[C@H](CCCCN)NC(=O)[C@@H]3CSSC[C@@H](C(=O)N[C@H](C(=O)N4CCC[C@H]4C(=O)N[C@@H](CCCCN)C(=O)O)[C@@H](C)O)NC(=O)[C@H](Cc4c[nH]cn4)NC(=O)[C@H](CSSC[C@H](NC(=O)[C@H](CCC(N)=O)NC(=O)[C@H](C)NC(=O)[C@H](CO)NC1=O)C(=O)N[C@@H](CC(C)C)C(=O)N[C@@H](CCC(=O)O)C(=O)N1CCC[C@H]1C(=O)N3)NC(=O)[C@H](CCCCN)NC(=O)CNC(=O)[C@H](CC(N)=O)NC(=O)[C@H](CCSC)NC2=O [Ala-12] (H-GVIINVKCKISAQCLEPCKKAGMRFGKCMNGKCHCTPK-OH; disulfide 8-28, 14-33, 18-35)",,0.123 nM,
"CC[C@H](C)[C@@H]1NC(=O)[C@H](CCCCN)NC(=O)[C@@H](NC(=O)[C@H](CCCCN)NC(=O)[C@@H](NC(=O)[C@H](CC(N)=O)NC(=O)[C@@H](NC(=O)[C@@H](NC(=O)[C@@H](NC(=O)CN)C(C)C)[C@@H](C)CC)[C@@H](C)CC)C(C)C)CSSC[C@@H]2NC(=O)[C@H](CCCCN)NC(=O)CNC(=O)[C@H](Cc3ccccc3)NC(=O)[C@H](CCCNC(=N)N)NC(=O)[C@H](CCSC)NC(=O)CNC(=O)[C@H](C)NC(=O)[C@H](CCCCN)NC(=O)[C@H](CCCCN)NC(=O)[C@@H]3CSSC[C@@H](C(=O)N[C@H](C(=O)N4CCC[C@H]4C(=O)N[C@@H](CCCCN)C(=O)O)[C@@H](C)O)NC(=O)[C@H](Cc4c[nH]cn4)NC(=O)[C@H](CSSC[C@H](NC(=O)[C@H](CCC(N)=O)NC(=O)[C@H](C)NC(=O)[C@H](CO)NC1=O)C(=O)N[C@@H](CC(C)C)C(=O)N[C@@H](CCC(=O)O)C(=O)N1CCC[C@H]1C(=O)N3)NC(=O)[C@H](CCCCN)NC(=O)CNC(=O)[C@H](CC(N)=O)NC(=O)[C@H](CCSC)NC2=O [OSK1[Ala-12]] (H-GVIINVKCKISAQCLEPCKKAGMRFGKCMNGKCHCTPK-OH; disulfide 8-28, 14-33, 18-35)",,,several orders of magnitude more potent
